The other results are listed elsewhere or left out. Further columns of the screen follow, without active or inactive calls.
Tests used:
Test in all cases: Primary Screen for Target Class Profiling of Small Molecule Inhibitors of Methyltransferases
[1] = biological target: Glycine N-methyltransferase (Homo sapiens) (UniProt Q14749); settings: purified enzyme, MTase-Glo SAH luminescence; measured here: GNMT inhibition; at 40 µM; stronger effect = lower value
In short: (§1)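 Each enzyme was reacted with SAM and its substrate, with compounds tested once at 40 uM; SAH formed was read by MTase-Glo luminescence.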

[2] = biological target: Guanidinoacetate N-methyltransferase (Homo sapiens) (UniProt Q14353); settings: purified enzyme, MTase-Glo SAH luminescence; measured here: GAMT inhibition; at 40 µM; stronger effect = lower value
In short: as §1

[3] = biological target: Histamine N-methyltransferase (Homo sapiens) (UniProt P50135); settings: purified enzyme, MTase-Glo SAH luminescence; measured here: HNMT inhibition; at 40 µM; stronger effect = lower value
In short: as §1

[4] = biological target: Nicotinamide N-methyltransferase (Homo sapiens) (UniProt P40261); settings: purified enzyme, MTase-Glo SAH luminescence; measured here: NNMT inhibition; at 40 µM; stronger effect = lower value
In short: as §1

[5] = biological target: Phenylethanolamine N-methyltransferase (Homo sapiens) (UniProt P11086); settings: purified enzyme, MTase-Glo SAH luminescence; measured here: PNMT inhibition; at 40 µM; stronger effect = lower value
In short: as §1
On the % scale 0 is the no-effect control and ±100 the full control effect.

| Structure (SMILES) | activity change, negative = inhibition [1] [%] | activity change, negative = inhibition [2] [%] | activity change, negative = inhibition [3] [%] | activity change, negative = inhibition [4] [%] | activity change, negative = inhibition [5] [%] |
| --- | --- | --- | --- | --- | --- |
| O=C(O)CCCCCCCC(=O)O | -5.77 | 2.1 | -0.439 | -8.46 | -3.23 |
| COc1ccc(CN2C(=O)c3cc4ccccc4n3CC2(C)C(=O)NCCC(C)C)c(OC)c1 (stereo not given) | 1.76 | 3.93 | 2.19 | -4.78 | -2.65 |
| COc1cccc(CN2C(=O)c3cc4ccc(OC)cc4n3CC2(C)C(=O)NCC2CCCO2)c1 (stereo not given) | 2.18 | 4.53 | 4.55 | 1.47 | 1.09 |
| CC(C)CCNC(=O)C1c2c(n(C)c3ccccc23)SCC(=O)N1c1cccc(C(F)(F)F)c1 (stereo not given) | 8.44 | 0.881 | 1.97 | -2.75 | 4.03 |
| COc1ccccc1CNC(=O)C1(C)Cn2c(cc3ccccc32)C(=O)N1CCc1cccs1 (stereo not given) | 6.84 | 2.48 | 7.27 | 9.62 | 1.2 |
| O=C(N[C@H]1CCN2C(=O)c3cc(-c4ccc(Cl)cc4)ccc3NC(=O)[C@H]12)C1CCCC1 | -6 | -1.5 | -0.182 | -7.04 | -0.954 |
| CC1CCC2(O1)C(C)(C)CC(O[C@@H]1O[C@H](CO[C@@H]3OC[C@](O)(CO)[C@H]3O)[C@@H](O)[C@H](O)[C@H]1O)CC2(C)O (stereo not given in full) | 5.9 | 2.95 | 10.3 | -7.69 | 0.788 |
| O=C(CCn1ccc2cc(S(=O)(=O)N3CCCCC3)ccc21)NCCc1c[nH]c2ccccc12 | 4.79 | 0 | -8.81 | 6.34 | 2.54 |
| O=C(C(c1ccccc1)c1ccccc1)N1CCN(CC(O)COc2cccc3ncccc23)CC1 (stereo not given) | -12.1 | -11.3 | -7.1 | -32.6 | -13.2 |
| Cc1cc(O[C@@H]2O[C@H](COC(=O)CC(=O)O)[C@@H](O)[C@H](O)[C@H]2O)c(C(C)C)cc1O | -2.99 | -0.807 | 10 | -14.9 | -5.98 |
| O=C(NCC1CC1)c1cccc(OC2CN(Cc3cc4ccccc4nc3Cl)C2)c1 | -15.5 | 0.588 | -4.64 | -13 | -10.3 |
| CC(C)(C)C(=O)CN1C(=O)[C@H](NC(=O)Nc2cccc(C(=O)O)c2)CN(C2CCCCC2)c2ccccc21 | 1.42 | 5.88 | 3.29 | -22.6 | 1.11 |
| CCn1c2c(c(=O)n1-c1ccccc1)CCN(Cc1ncccn1)C2 | -9.59 | -8 | -17.9 | -12.6 | -12 |
| C=C1CC23CC(=O)C4C(CO)(CO)CCCC4(C)C2CCC1C3 (stereo not given) | -0.995 | -7.09 | -7.03 | -20.9 | -1.57 |
| CCCn1c(=O)c2ccc(C(=O)NC(C)CC)cc2n2c(=O)n(Cc3ccccc3Cl)nc12 (stereo not given) | 2.44 | 0.974 | 6.91 | 0.803 | 3.08 |
| C=CC(=O)N1CCC[C@@H](n2nc(-c3cccc(C(=O)Nc4ccc(C(C)C)c(C)c4)c3)c3c(N)ncnc32)C1 | -1.65 | 19.8 | 7.77 | -19.7 | 6.38 |
| O=C(Cc1ccccc1F)N1CC2CC(C1)[C@H]1CCCC(=O)N1C2 (stereo not given in full) | -4.57 | -4.93 | -1.3 | -3.86 | -6.61 |
| O=C(c1ccccc1)N1CCCC2(CC(c3ccccn3)=NO2)C1 (stereo not given) | -3.14 | -4.27 | 0.541 | -6.61 | -1.89 |
| Clc1cc(NC2CCCCC2)n2nccc2n1 | -4.7 | 0.423 | -2.79 | -2.84 | 9.19 |

| Structure (SMILES) | activity change, negative = inhibition [1] [%] | activity change, negative = inhibition [2] [%] | activity change, negative = inhibition [3] [%] | activity change, negative = inhibition [4] [%] | activity change, negative = inhibition [5] [%] |
| --- | --- | --- | --- | --- | --- |
| CCOCCCNc1nc2c(S(=O)(=O)c3ccc(C)c(C)c3)nnn2c2ccc(Cl)cc12 | -11.6 | -0.895 | -6.12 | -3.02 | -9.98 |
| Cc1ccc(N(C)S(=O)(=O)c2ccc3[nH]c4c(c3c2)CCCC4)cc1 | 1.56 | 0.129 | -4.32 | -6.91 | -1.62 |
| Cc1cccc(N2CCN(C(=O)c3cc4n(n3)CC(c3ccc(Cl)cc3)OC4)CC2)c1 (stereo not given) | -3.13 | 1.91 | -0.017 | -2.19 | -30.8 |
| CC1(C(=O)NCc2ccccc2)Cn2c(ccc2-c2ccco2)C(=O)N1CCc1ccc(Cl)cc1 (stereo not given) | 2.3 | 0 | 9.31 | 3.82 | 0.516 |
| COC(=O)C1=CO[C@@H](O[C@@H]2O[C@H](CO)[C@@H](O)[C@H](O)[C@H]2O)[C@@H]2[C@@H](C(=O)O)CC[C@H]12 | -4.09 | -1.22 | 8.24 | -16.2 | -10.9 |
| Cc1cc2occ(CN(C)CCN(C)Cc3cn(-c4cccc(C(F)(F)F)c4)c4ccccc34)c(=O)c2cc1C | -1.79 | 14.1 | -36.4 | -45 | 1.54 |
| Cc1cn2nc(C(=O)N3CCN(C(=O)c4ccco4)CC3)cc2c(N2CCCC2)n1 | -9.24 | 0.033 | -5.51 | -15.1 | -4.12 |
| CCCn1c(=O)c2ccccc2n2c(=O)n(CC(=O)Nc3cc(Cl)ccc3C)nc12 | 2.7 | 0.965 | 8.1 | 2.79 | 1.77 |
| O=C1NCCCCCCN(C(=O)c2cccnc2)[C@H]2C[C@H](c3nc(Cc4ccccc4)no3)C[C@@H]12 | -3.17 | -2.78 | -0.203 | 7.04 | -0.384 |
| COc1cccc(C(=O)N2CCOC[C@H](Oc3ccccc3)C2)c1 | -6.34 | -6.05 | -5.96 | -12.9 | -11.5 |
| Cc1ccc(Cn2nc3n(CCC(C)C)c(=O)c4ccc(C(=O)NCC(C)C)cc4n3c2=O)cc1 | 5.2 | 0.33 | 7.25 | 4.6 | 4.27 |
| COC(=O)c1ncn2c1C(=O)N(Cc1cccc(Cl)c1)C(C)(C(=O)NC1CCCCCC1)C2 (stereo not given) | 3.17 | 0.549 | 8.32 | 7.53 | 0.581 |
| Cn1c(CCC(=O)NC2CCOC2)nc2cc(S(=O)(=O)N3CCCC3)ccc21 (stereo not given) | -1.18 | 2.26 | 0.086 | -2.07 | 10.3 |
| Cc1ccccc1Cn1nc2n(C)c(=O)c3ccc(C(=O)NC4CCCCC4)cc3n2c1=O | 2.66 | 0 | 9.09 | 1.88 | 3.1 |
| Cc1cc2c(cc1S(=O)(=O)Nc1ccc(F)cc1)n(C)c(=O)n2C | 10.8 | 0 | 9.21 | -0.7 | 4.11 |
| CCc1ccccc1N1C(=O)c2cc(C(=O)OC)nn2CC1(C)C(=O)NC1CCCCCC1 (stereo not given) | 0.73 | 0.685 | 2.21 | -0.869 | -0.701 |
| COc1cccc(C(=O)Cn2nc3n(Cc4ccc(C)cc4)c(=O)c4ccccc4n3c2=O)c1 | 0.544 | 0.049 | 2.03 | -1.37 | -0.442 |
| C/C(=N\O)c1ccc(OCC(=O)N2CCCCC2)cc1 | 0.311 | 7.3 | 3.29 | -11.3 | -3.89 |
| COCCN1Cc2ccc(NCC(C)C)nc2C(C)(C(=O)NC2CCC2)C1 (stereo not given) | -8.22 | -2.92 | -4.46 | -15.7 | -15.3 |

| Structure (SMILES) | activity change, negative = inhibition [1] [%] | activity change, negative = inhibition [2] [%] | activity change, negative = inhibition [3] [%] | activity change, negative = inhibition [4] [%] | activity change, negative = inhibition [5] [%] |
| --- | --- | --- | --- | --- | --- |
| COc1ccc(OC)c2c1cc1n2CC(C)(C(=O)NC2CCCC2)N(Cc2cccnc2)C1=O (stereo not given) | 5.15 | 0 | 10.8 | 6.35 | 2.6 |
| COCCN1C(=O)CCc2cc(NC(=O)c3ccc(Cl)s3)ccc21 | -6.47 | -4.75 | -8.08 | -7 | -2.02 |
| O=S(=O)(c1ccc(Cl)c(-c2nnc(-c3ccccc3)o2)c1)N1CCN(c2ccc(F)cc2)CC1 | 15.6 | 2.15 | 13.4 | 7.19 | 10.2 |
| CC(C(=O)N1CCN(c2ccccn2)CC1)n1ccc2cc(S(=O)(=O)N3CCCC3)ccc21 (stereo not given) | -0.389 | 0 | -0.727 | 0.501 | 2.36 |
| CC(C)NC(=O)c1ccc2c(=O)n(Cc3ccccc3)c3nnc(SCC(=O)c4ccccc4)n3c2c1 | 7.3 | 0.736 | 11.7 | 7.39 | 8.93 |
| CCCS(=O)(=O)N1C[C@@H](Oc2ccccc2)C[C@@H]1C(=O)NCCOC | -4.73 | -4.47 | -1.07 | -8.35 | -7.88 |
| Cc1ccc([S+](=O)([O-])NCCNC(=O)c2ccc(-c3cccc(C(F)(F)F)c3)cc2)cc1 | -3.06 | -5.78 | 0.786 | -1.05 | -2.46 |
| Cc1cc(F)ccc1S(=O)(=O)N1C[C@H](C2CC2)[C@@H](N)C1 | -4.01 | -4.06 | -0.707 | -2.99 | -9.23 |
| COC(=O)c1ncn2c1C(=O)N(Cc1ccccc1OC)C(C)(C(=O)NC1CCCCCC1)C2 (stereo not given) | -0.373 | 3.12 | -1.45 | -3.09 | 0.998 |
| CC1CCCC(NC(=O)C2(C)Cn3c(ccc3-c3ccco3)C(=O)N2Cc2cccnc2)C1C (stereo not given) | 2.3 | 1.36 | 10.9 | 6.73 | 5.08 |
| COC(=O)[C@@H](Cc1c[nH]c2ccccc12)NC(=O)[C@@H]1CN(C(=O)c2cccnc2)CCN1C(=O)NC(C)C | -7.5 | -5.45 | -2.96 | -7.2 | -4.46 |
| CN(C)c1ccc2c(c1)OC(N)=C(C#N)C2c1cccc(C(F)(F)F)c1 (stereo not given) | -7.64 | 5.35 | -6.21 | -29.2 | -13.3 |
| COCCC1(NC(=O)C2CC2)CCN(C(=O)C2CC2)CC1 | 0.506 | -0.685 | 0.151 | -2.17 | -4.34 |
| C=C1Cc2c(Cl)cc3[nH]c4c5c3c2[C@@]2(O)[C@@H]1C[C@@H]2C(C)(C)O[C@H]5C1CC[C@@]2(O)[C@@]35O[C@@H]3[C@H]3OC(C)(C)[C@H]3O[C@H]5CC[C@]2(C)[C@@]41C (stereo not given in full) | 0.027 | 9.63 | 2.88 | -4.88 | 4.79 |
| COc1ccc(N2CCN(CCCNC(=O)CCc3nnc4n(CC(C)C)c(=O)c5ccccc5n34)CC2)cc1 | -9.6 | 1.11 | -4.09 | -7.42 | -6.02 |
| C/C=C1/[C@H](O[C@@H]2O[C@H](CO)[C@@H](O)[C@H](O)[C@H]2O)OC=C(C(=O)OC)[C@H]1CC(=O)O[C@@H]1O[C@H](CO)[C@@H](O)[C@H](O)[C@H]1O | 2.28 | 5.72 | 4.84 | -6.25 | 2.72 |
| CCCCOc1ccc(CNC(=O)c2cc3n(n2)CC(C)(C(=O)NCc2ccc(F)cc2)N(C)C3=O)cc1 (stereo not given) | -2.81 | -0.186 | -8.96 | -3.34 | -2.6 |
| CN(Cc1ccco1)C(=O)Cn1c(=O)oc2cc(S(=O)(=O)NCc3ccccc3)ccc21 | -6.06 | 3.49 | -6.21 | 5.13 | -8.83 |
| CCC(C)NC(=O)c1ccc2c(=O)n(C(C)C)c3nn(CC(=O)c4cccc(Cl)c4)c(=O)n3c2c1 (stereo not given) | 5.32 | 0 | 7.17 | -1.31 | 3.44 |
